Measured values: PMC3738492
Where a chain is given by its changes, count along the chain named. No constants are given. Whether binding was seen depends on the method and setting. In cells and extracts the contact can be indirect. Some results given as binding are weak or reduced against the parent protein; the word gives no strength. For some of these results: Sequences can lack the tags named with a protein. One block for each molecule: values may come before it.

Amino acid sequences for entries named in this document (tags omitted).
UniProt Q14258: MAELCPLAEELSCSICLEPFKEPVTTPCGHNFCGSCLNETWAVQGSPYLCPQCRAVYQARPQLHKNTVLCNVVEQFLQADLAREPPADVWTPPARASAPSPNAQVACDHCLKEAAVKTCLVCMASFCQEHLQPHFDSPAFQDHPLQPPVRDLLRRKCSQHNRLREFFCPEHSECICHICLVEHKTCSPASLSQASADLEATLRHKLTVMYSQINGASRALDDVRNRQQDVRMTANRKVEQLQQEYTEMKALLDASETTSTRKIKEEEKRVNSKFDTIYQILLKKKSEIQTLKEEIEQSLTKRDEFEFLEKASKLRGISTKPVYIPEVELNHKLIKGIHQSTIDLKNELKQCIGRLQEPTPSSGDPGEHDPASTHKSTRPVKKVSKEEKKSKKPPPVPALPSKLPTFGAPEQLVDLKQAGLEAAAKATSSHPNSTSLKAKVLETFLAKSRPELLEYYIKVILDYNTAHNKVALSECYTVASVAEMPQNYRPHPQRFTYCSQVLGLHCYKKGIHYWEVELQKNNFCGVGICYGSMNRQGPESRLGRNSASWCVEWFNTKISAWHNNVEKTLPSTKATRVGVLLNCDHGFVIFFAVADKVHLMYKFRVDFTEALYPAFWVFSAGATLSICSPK

Legend:
[1] = molecular target: T1, FLAG-tagged RIG-I K788R (not stated (the printed entry NP_055129 is a human one)) (UniProt O95786); test: co-IP; HEK293FT cells, lysate 24 h after transfection of FLAG-RIG-I (or K788R), HA-TRIM25 and HA-Riplet; IP with anti-FLAG antibody; co-expressed NS3-4A reduced the interaction (Figure 8D)
T1 sequence: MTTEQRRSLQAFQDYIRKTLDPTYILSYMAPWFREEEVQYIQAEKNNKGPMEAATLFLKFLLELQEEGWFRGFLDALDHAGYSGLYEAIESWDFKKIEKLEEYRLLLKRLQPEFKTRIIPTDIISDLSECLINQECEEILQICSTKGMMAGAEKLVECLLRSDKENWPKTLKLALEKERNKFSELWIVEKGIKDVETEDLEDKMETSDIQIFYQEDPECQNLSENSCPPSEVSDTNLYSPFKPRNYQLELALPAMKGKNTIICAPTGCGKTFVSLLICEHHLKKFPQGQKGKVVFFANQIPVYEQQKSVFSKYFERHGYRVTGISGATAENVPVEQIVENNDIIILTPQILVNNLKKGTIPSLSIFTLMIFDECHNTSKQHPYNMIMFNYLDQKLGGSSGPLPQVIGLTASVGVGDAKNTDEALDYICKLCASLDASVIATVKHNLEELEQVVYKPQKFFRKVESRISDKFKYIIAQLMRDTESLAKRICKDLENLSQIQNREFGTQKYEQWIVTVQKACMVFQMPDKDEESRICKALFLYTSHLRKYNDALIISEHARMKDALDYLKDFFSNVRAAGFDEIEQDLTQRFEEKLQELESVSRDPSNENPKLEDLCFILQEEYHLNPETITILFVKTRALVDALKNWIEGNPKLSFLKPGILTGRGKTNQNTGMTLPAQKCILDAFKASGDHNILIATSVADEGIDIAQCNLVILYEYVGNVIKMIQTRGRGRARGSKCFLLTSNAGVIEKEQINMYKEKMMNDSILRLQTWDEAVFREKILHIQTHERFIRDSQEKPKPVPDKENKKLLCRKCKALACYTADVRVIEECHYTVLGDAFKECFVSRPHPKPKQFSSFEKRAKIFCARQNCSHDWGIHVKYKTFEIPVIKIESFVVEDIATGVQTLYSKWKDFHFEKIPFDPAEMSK

[2] = molecular target: T2, N-terminal FLAG-tagged RIG-I (full-length) (not stated (the printed entry NP_055129 is a human one)) (UniProt O95786); test: co-IP; as a3 but without ectopic Riplet expression; HEK293FT, IP with anti-FLAG antibody
T2 sequence: T1 sequence with R788K

[3] = molecular target: T3, endogenous RIG-I (human (endogenous in HEK293FT and HuH7)) (UniProt O95786); test: co-IP; endogenous proteins; HEK293FT cells stimulated with 0.8 µg HCV dsRNA (lipofectamine 2000), lysates at the indicated times; IP with anti-RIG-I mAb Alme-1
T3 sequence: T1 sequence with R788K

[4] = molecular target: T4, FLAG-tagged RIG-I RD (not stated (the printed entry NP_055129 is a human one)) (UniProt O95786); test: co-IP; HEK293FT cells, lysate 24 h after transfection; IP of the FLAG-tagged RIG-I fragment with anti-FLAG antibody; Riplet co-expressed in some panels of Figure 6
T4 sequence: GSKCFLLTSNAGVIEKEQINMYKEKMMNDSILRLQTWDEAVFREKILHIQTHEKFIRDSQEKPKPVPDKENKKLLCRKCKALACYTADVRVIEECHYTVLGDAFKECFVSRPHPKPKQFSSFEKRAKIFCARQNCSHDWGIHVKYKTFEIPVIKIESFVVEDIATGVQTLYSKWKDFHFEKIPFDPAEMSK

[5] = molecular target: T3, endogenous RIG-I (human (endogenous in HEK293FT and HuH7)); test: co-IP; endogenous proteins; HuH7 cells infected with SeV at MOI = 1 for 24 hours; IP with anti-RIG-I (Alme-1) antibody

binding [1]: no binding
binding [2]: binds weakly
Molecule: C-terminal HA-tagged TRIM25 (from UniProt Q14258 1-630)

binding [3]: binds
B1: endogenous Riplet (protein, UniProt Q8IUD6 1-432)
chain: MAGLGLGSAVPVWLAEDDLGCIICQGLLDWPATLPCGHSFCRHCLEALWGARDARRWACPTCRQGAAQQPHLRKNTLLQDLADKYRRAAREIQAGSDPAHCPCPGSSSLSSAAARPRRRPELQRVAVEKSITEVAQELTELVEHLVDIVRSLQNQRPLSESGPDNELSILGKAFSSGVDLSMASPKLVTSDTAAGKIRDILHDLEEIQEKLQESVTWKEAPEAQMQGELLEAPSSSSCPLPDQSHPALRRASRFAQWAIHPTFNLKSLSCSLEVSKDSRTVTVSHRPQPYRWSCERFSTSQVLCSQALSSGKHYWEVDTRNCSHWAVGVASWEMSRDQVLGRTMDSCCVEWKGTSQLSAWHMVKETVLGSDRPGVVGIWLNLEEGKLAFYSVDNQEKLLYECTISASSPLYPAFWLYGLHPGNYLIIKQVKV

binding [4]: binds
B2: Riplet (ectopically expressed) (protein, UniProt Q8IUD6 1-432)
chain: B1 chain

binding [5]: binds
B3: endogenous TBK1 (protein, UniProt Q9UHD2 1-729)
chain: MQSTSNHLWLLSDILGQGATANVFRGRHKKTGDLFAIKVFNNISFLRPVDVQMREFEVLKKLNHKNIVKLFAIEEETTTRHKVLIMEFCPCGSLYTVLEEPSNAYGLPESEFLIVLRDVVGGMNHLRENGIVHRDIKPGNIMRVIGEDGQSVYKLTDFGAARELEDDEQFVSLYGTEEYLHPDMYERAVLRKDHQKKYGATVDLWSIGVTFYHAATGSLPFRPFEGPRRNKEVMYKIITGKPSGAISGVQKAENGPIDWSGDMPVSCSLSRGLQVLLTPVLANILEADQEKCWGFDQFFAETSDILHRMVIHVFSLQQMTAHKIYIHSYNTATIFHELVYKQTKIISSNQELIYEGRRLVLEPGRLAQHFPKTTEENPIFVVSREPLNTIGLIYEKISLPKVHPRYDLDGDASMAKAITGVVCYACRIASTLLLYQELMRKGIRWLIELIKDDYNETVHKKTEVVITLDFCIRNIEKTVKVYEKLMKINLEAAELGEISDIHTKLLRLSSSQGTIETSLQDIDSRLSPGGSLADAWAHQEGTHPKDRNVEKLQVLLNCMTEIYYQFKKDKAERRLAYNEEQIHKFDKQKLYYHATKAMTHFTDECVKKYEAFLNKSEEWIRKMLHLRKQLLSLTNQCFDIEEEVSKYQEYTNELQETLPQKMFTASSGIKHTMTPIYPSSNTLVEMTLGMKKLKEEMEGVVKELAENNHILERFGSLTMDGGLRNVDCL

binding [4]: binds
B4: Myc-tagged TBK1 (protein, UniProt Q9UHD2 1-729)
chain: B3 chain

binding [4]: binds
B5: HA-tagged IKK-ε (protein, UniProt Q14164 1-716)
chain: MQSTANYLWHTDDLLGQGATASVYKARNKKSGELVAVKVFNTTSYLRPREVQVREFEVLRKLNHQNIVKLFAVEETGGSRQKVLVMEYCSSGSLLSVLESPENAFGLPEDEFLVVLRCVVAGMNHLRENGIVHRDIKPGNIMRLVGEEGQSIYKLTDFGAARELDDDEKFVSVYGTEEYLHPDMYERAVLRKPQQKAFGVTVDLWSIGVTLYHAATGSLPFIPFGGPRRNKEIMYRITTEKPAGAIAGAQRRENGPLEWSYTLPITCQLSLGLQSQLVPILANILEVEQAKCWGFDQFFAETSDILQRVVVHVFSLSQAVLHHIYIHAHNTIAIFQEAVHKQTSVAPRHQEYLFEGHLCVLEPSVSAQHIAHTTASSPLTLFSTAIPKGLAFRDPALDVPKFVPKVDLQADYNTAKGVLGAGYQALRLARALLDGQELMFRGLHWVMEVLQATCRRTLEVARTSLLYLSSSLGTERFSSVAGTPEIQELKAAAELRSRLRTLAEVLSRCSQNITETQESLSSLNRELVKSRDQVHEDRSIQQIQCCLDKMNFIYKQFKKSRMRPGLGYNEEQIHKLDKVNFSHLAKRLLQVFQEECVQKYQASLVTHGKRMRVVHETRNHLRLVGCSVAACNTEAQGVQESLSKLLEELSHQLLQDRAKGAQASPPPIAPYPSPTRKDLLLHMQELCEGMKLLASDLLDNNRIIERLNRVPAPPDV
